The full ranking holds about 110,000 compounds; the median of “z-score” is about -0.1, and the highest 2% start at about 2. The list shows a part of the results.
biological target: Metabotropic glutamate receptor 8 (Rattus norvegicus) (UniProt P70579); assay: rat mGluR8 modulators via GIRK flux, primary screen, cell-based, thallium flux, HTS (AID 488969); settings: HEK293 rat mGluR8, GIRK (G protein-gated inwardly rectifying potassium channel) thallium flux, FluoZin2; at 10 µM; stronger effect = higher value; submaximal glutamate (EC20) added with thallium
Chain of UniProt P70579 (P70579 whole entry, looked up): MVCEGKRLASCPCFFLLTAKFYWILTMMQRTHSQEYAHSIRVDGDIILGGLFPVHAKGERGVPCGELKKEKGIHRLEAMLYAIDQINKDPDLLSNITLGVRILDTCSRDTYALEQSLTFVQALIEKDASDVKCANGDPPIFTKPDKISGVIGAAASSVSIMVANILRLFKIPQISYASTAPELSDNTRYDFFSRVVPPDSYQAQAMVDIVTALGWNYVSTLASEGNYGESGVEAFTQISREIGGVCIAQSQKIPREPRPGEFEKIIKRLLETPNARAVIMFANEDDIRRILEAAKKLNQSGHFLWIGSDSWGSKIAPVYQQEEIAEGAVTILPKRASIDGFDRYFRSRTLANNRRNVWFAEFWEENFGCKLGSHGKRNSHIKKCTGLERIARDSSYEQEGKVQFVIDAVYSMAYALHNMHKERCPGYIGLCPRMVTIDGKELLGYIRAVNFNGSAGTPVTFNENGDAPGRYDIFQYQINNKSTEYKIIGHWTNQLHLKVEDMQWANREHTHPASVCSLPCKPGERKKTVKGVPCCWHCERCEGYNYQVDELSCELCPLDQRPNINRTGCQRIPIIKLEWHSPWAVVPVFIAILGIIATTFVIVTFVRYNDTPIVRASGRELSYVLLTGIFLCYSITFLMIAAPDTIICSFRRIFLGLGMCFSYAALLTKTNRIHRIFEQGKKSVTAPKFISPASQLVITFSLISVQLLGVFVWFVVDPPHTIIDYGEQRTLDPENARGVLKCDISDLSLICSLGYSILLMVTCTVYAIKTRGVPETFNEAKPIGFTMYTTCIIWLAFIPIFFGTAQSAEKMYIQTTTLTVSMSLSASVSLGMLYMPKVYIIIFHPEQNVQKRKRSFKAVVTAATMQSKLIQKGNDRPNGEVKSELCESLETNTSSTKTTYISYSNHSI

Row | SMILES | z-score
1 | Cc1sc2ncn(C(C)C(=O)OC3CCCCC3)c(=O)c2c1C (stereo unspecified) | -0.264
2 | c1ccc(COc2cccc(CNn3cnnc3)c2)cc1 | -0.177
3 | COc1cc2c(cc1OC)C(C(=O)Nc1cccc(C)n1)C(c1cccnc1)N(C)C2=O (stereo unspecified) | 1.39
4 | COc1ccc(CNC(=O)C2CCC(CNS(=O)(=O)c3cccc4nsnc34)CC2)cc1 (stereo unspecified) | -0.00856
5 | Cc1cc(C)n(-c2nc3ccccc3c(=O)n2OCC(N)=O)n1 | -0.254
6 | COc1ccc(C(=O)N2CCC(O)(c3ccc(F)cc3)CC2)cc1OC | -0.0981
7 | O=C(Cc1ccsc1-c1ccccc1)NO | -0.296
8 | CCOC(=O)c1ccccc1-c1csc(NS(=O)(=O)c2ccc(Cl)cc2)n1 | -0.194
9 | CS(=O)(=O)N1CCCC(C(=O)NCc2cccs2)C1 (stereo unspecified) | 0.48
10 | NC(=O)CC1SC(N)=NC1=O (stereo unspecified) | -0.141
11 | O=C(CC(C(=O)N1CCc2ccccc21)n1ccnc1)NCc1cccnc1 (stereo unspecified) | 0.267
12 | CCc1c(C)nc2[nH]nc(NC(=O)C(F)(F)F)n2c1=O | 0.07
13 | CCOC(=O)c1ccc(NC(=O)COc2cc(=O)n(CC)c3ccccc23)cc1 | 0.467
14 | COc1ccc(OC)c(C(=O)c2ccc(C(=O)Nc3ccccc3)cc2)c1 | -0.73
15 | CCOC(=O)c1ccc(NC(=O)CNC(=O)c2ccccc2)cc1 | -0.148
16 | COc1ccc(NC(=O)CSc2ccc3ccccc3c2)cc1S(=O)(=O)N1CCCCC1 | -0.097
17 | COc1ccc(C(=O)CN(C(=O)c2ccc(Cl)cc2)N2C(=O)C3CCCCC3C2=O)cc1 (stereo unspecified) | -0.588
18 | Cc1ccc(C)n1-c1ccc(C(=O)NCC2CCCO2)cc1 (stereo unspecified) | -0.25
19 | O=C(Nc1cccc(F)c1)c1cccnc1NCCc1ccccc1 | -0.234
20 | O=C(c1cccc(NS(=O)(=O)c2ccc(F)c(F)c2)c1)N1CCN(Cc2ccccc2)CC1 | -0.548
21 | O=C(N=Nc1c(O)n(C2OC(=O)c3ccccc32)c2ccccc12)c1ccc(O)cc1 (stereo unspecified) | -0.332
22 | C=CCn1c(=O)c(C(=O)Nc2cccnc2)c(O)c2ccccc21 | 0.541
23 | O=C(N/N=C/c1cc(Br)ccc1O)c1cccc(N2CCCC2=O)c1 | -0.268

Row | SMILES | z-score
24 | COc1cc2c(cc1NC(=O)CSc1ccccc1)oc1ccccc12 | -0.258
25 | O=C(COc1ccc(F)cc1)N(CC1=CCS(=O)(=O)C1)c1ccccc1 | 0.178
26 | CC(C)=CC(=O)Nc1nnc(C(C)C)s1 | -0.845
27 | O=C(Oc1ccccc1)c1ccc2nsnc2c1 | 0.0931
28 | COc1ccc(CCNC(=O)CSc2nnc(CNc3ccc(Cl)cc3)o2)cc1OC | -0.278
29 | COc1ccc(Cl)cc1-c1nc(-c2ccc(NC(=O)c3ccncc3)cc2)no1 | 1.33
30 | CC(CC(=O)Nc1cc(C(F)(F)F)ccc1Cl)c1ccccc1 (stereo unspecified) | 1.48
31 | CCOc1ccc(CN(C)C(C)C(=O)Nc2ccc([N+](=O)[O-])cc2Cl)cc1OC (stereo unspecified) | 0.0908
32 | Cc1ccc(-n2nc3ccc(NC(=O)/C=C/c4ccco4)cc3n2)cc1 | -0.173
33 | COCCN(C(=O)Cc1cccs1)C(C(=O)NCc1ccc(OC)cc1)c1ccc(C)cc1 (stereo unspecified) | -0.364
34 | COc1cc(/C=C/C(=O)O)cc(S(=O)(=O)NCCCO)c1OC | -0.201
35 | CN1C(=O)c2ccccc2Sc2ccc(NC(=O)N3CCCC3)cc21 | -0.574
36 | Cc1cc(C)n2nc(SCn3nnc4ccccc4c3=O)nc2n1 | -0.219
37 | C=CCOc1ccc(CNn2nnnc2N)cc1 | 0.102
38 | COCCn1c(SCC(=O)Nc2nnc(C)s2)nnc1-c1ccncc1 | -0.0183
39 | O=C(CNC(=O)c1ccc(S(=O)(=O)N2CCCC2)cc1)N/N=C/c1ccc(Cl)cc1 | -0.335
40 | CC(C)NC(=O)CN1CCN(c2ncccn2)CC1 | -0.281
41 | Cc1ccc(Cl)cc1N1CCN(C(=O)COc2ccc3c(c2)CCC3)CC1 | 0.176
42 | C=CCN1C(=O)c2ccccc2Sc2ccc(C(=O)N3CCN(C)CC3)cc21 | -0.000615
43 | Cc1ccc(-c2nc3ccccc3[nH]2)cc1N | 0.0589
44 | O=C(Nc1ccc(F)cc1)c1cccc(NC(=O)C2C3CC4OC(=O)C2C4C3)c1 (stereo unspecified) | -0.357
45 | Cc1cc(N)n(-c2ccc3ccccc3c2)n1 | -0.137
46 | N#Cc1cnn2c1nc(N1CCOCC1)c1ccccc12 | -0.44

Row | SMILES | z-score
47 | COc1cccc(C(=O)/C=C/c2ccc(OCC#N)c(OC)c2)c1 | -0.357
48 | CC(C)C(=O)Nc1ccc2c(c1)nc1n2CCSC1 | -2.11
49 | O=C(CN(Cc1cccs1)S(=O)(=O)c1ccc(S(=O)(=O)N2CCCCC2)cc1)Nc1ccccc1 | -0.158
50 | Cc1ccccc1-n1nnnc1SCCCC(=O)c1ccc(F)cc1 | -0.474
51 | CCCn1cc(SCC(=O)Nc2ccc3c(c2)OCO3)c2ccccc21 | -0.253
52 | Cc1nc(NC(=O)CCCC(=O)Nc2nc(C)c(C)s2)sc1C | 0.506
53 | CCOCCN(C=O)c1cccc(OC)c1 | -0.166
54 | COC(=O)Nc1ccc(S(=O)(=O)N(C)CC(F)(F)C(F)F)cc1 | -0.0544
55 | Cc1ccc(C(=O)CSc2nnc(-c3ccccc3)n2-c2ccccc2)o1 | -0.348
56 | COc1cccc(NC(=S)N(Cc2ccco2)C(C)c2ccco2)c1 (stereo unspecified) | -1.14
57 | COc1c(C(C)C)cc(NC(C)=O)cc1C(C)C | -0.485
58 | O=[N+]([O-])c1cc(C(F)(F)F)ccc1Sc1nccn1Cc1ccccc1 | -0.351
59 | CC(=O)Nc1ccc(NC2=CC(=O)CC(C)(C)C2)cc1 | -0.413
60 | COc1ccc(Sc2ccccc2CN(C)C)cc1OC | -0.000634
61 | Cn1c(SCC(=O)NC(C)(C)C)nc(O)cc1=O | -0.0162
62 | CCCCOc1ccc(C(C)NC(=O)CCS(=O)(=O)Cc2ccc(Cl)cc2)cc1 (stereo unspecified) | 0.0425
63 | Cc1cccc(-n2nc(C(=O)Nc3ccccc3)n3c(=O)cc(-c4ccccc4)nc23)c1 | -0.275
64 | CCCC(=O)Nc1nnc(SCC(=O)NCc2cccs2)s1 | -0.733
65 | Cc1c(NC(=O)/C(C#N)=C/c2cccs2)c(=O)n(-c2ccccc2)n1C | 0.559
66 | CCN1C(=O)N/C(=C/c2ccc(Sc3ccc(C)cc3)o2)C1=O | 0.102
67 | Cc1cc(C)c2c(N)c(C(=O)NN3CC(=O)N(c4ccccc4F)CC3=O)sc2n1 | -0.153
68 | COCCCNC(=S)N1CCN(S(C)(=O)=O)CC1 | -0.135
69 | COc1ccc(C(=O)C(OC(=O)c2ccccc2Cl)c2ccccc2)cc1 (stereo unspecified) | -0.172

Row | SMILES | z-score
70 | CCn1c(Cc2ccccc2)nnc1SCC(=O)N1CCCCC1 | -0.423
71 | CCSc1nnc(NC(=O)C2CCCCC2)s1 | 0.298
72 | Cc1ccc(-n2c(SCc3nnc4n3CCC4)nnc2-c2ccccc2)cc1 | 1.68
73 | COc1ccc(/C=C2\CCCc3c2nc2ccccc2c3C(=O)OCC(=O)c2c(N)n(C)c(=O)n(C)c2=O)cc1 | -0.224
74 | CSc1nc(C)cc(SCC(=O)Nc2ccccc2)n1 | 0.363
75 | Cc1c(NC(=O)c2coc(=O)c(Br)c2)c(=O)n(-c2ccccc2)n1C | -0.0547
76 | Cc1ccccc1C(CC(=O)c1cccs1)C(C#N)C#N (stereo unspecified) | -0.178
77 | Cc1ccc(SCCC(=O)N/N=C/c2ccccc2O)cc1 | -0.049
78 | NC(=O)C1CCN(Cc2nc3cc(Cl)ccc3c(=O)[nH]2)CC1 | 0.184
79 | C=CCn1c(C(C)NC(=O)C(C)(C)C)nc2ccccc21 (stereo unspecified) | 0.41
80 | Cc1ccc(N(Cc2ccc(C(=O)NC3CCCCC3)cc2)S(C)(=O)=O)cc1C | -0.289
81 | O=C(CN(c1ccccc1)S(=O)(=O)c1ccccc1)N/N=C/c1ccco1 | -0.795
82 | O=C(NCc1cccs1)C1CC(=O)N(C2CCCC2)C1 (stereo unspecified) | 0.227
83 | Cc1ccc2c(c1)CC1(CN2C)C(=O)OC(C)(C)OC1=O | -0.249
84 | COc1ccc(C(=O)Nc2c(C)ccc3nsnc23)cc1[N+](=O)[O-] | 0.723
85 | O=C1CC(N(C(=O)c2ccco2)c2ccc(F)cc2)C(=O)N1c1ccc(F)cc1 (stereo unspecified) | 0.415
86 | CCCSc1nsc(SCCC)c1C#N | -0.0653
87 | Cc1c(Nc2ncnc3c2cnn3-c2ccccc2)c(=O)n(-c2ccccc2)n1C | -0.362
88 | O=C(c1cc(=O)[nH]c2ccccc12)N1CCN(S(=O)(=O)c2ccc3ccccc3c2)CC1 | 0.0401
89 | O=C(OCc1ccc(Cl)cc1Cl)c1ccncc1 | 0.0599
90 | O=C(c1cnc2n(c1=O)CCS2)N(c1ccccc1)C1CCCCC1 | 0.121
91 | O=C(NCCCN1CCOCC1)c1ccc(CS(=O)(=O)c2ccc(Br)cc2)o1 | -0.0398
92 | CN(C)CCCO/N=C(\c1ccccc1)c1ccncc1 | 1.01

Row | SMILES | z-score
93 | CN(C)c1cccc(C(=O)OCC(=O)Nc2nccs2)c1 | -0.0253
94 | Nc1nc(CSc2nc3ccccc3[nH]2)nc(N2CCOCC2)n1 | -0.701
95 | N#CC1=C(N)OC2=C(CC/C2=C\c2ccccc2Cl)C1c1ccccc1Cl (stereo unspecified) | -0.183
96 | Cc1ccc(Cn2nnc3c(=O)[nH]c(C4CCCN(S(=O)(=O)c5ccccc5)C4)nc32)cc1 (stereo unspecified) | 0.32
97 | COc1cccc(-c2nc(CS(=O)(=O)CC(=O)N3CCc4ccccc43)c(C)o2)c1 | -0.134
98 | Cc1cccc(S(=O)(=O)C(C#N)c2nc3ccccc3nc2N2CCOCC2)c1 (stereo unspecified) | -0.193
99 | COc1ccc(CCNC(=O)CC2SC(=NCCC(C)C)NC2=O)cc1OC (stereo unspecified) | -0.444
100 | O=c1[nH]c2ccc(Cl)cc2c(-c2ccccc2)c1SC(=S)N1CCCCC1 | -0.145
101 | COc1ccccc1NS(=O)(=O)c1cc(NC(=O)Nc2ccc(Cl)cc2Cl)ccc1N1CCCCC1 | 0.372
102 | Cc1ccccc1Cn1nnc(-c2ccc3c(c2)OCO3)n1 | -1.14
103 | O=C(CCCO)N/N=C/c1cc(Br)ccc1O | -0.0384
104 | CCOCCCNC(=O)c1ccc2c(c1)ncn2C1CCCC1 | -0.215
105 | Cn1c(SCc2nc(-c3ccc(Cl)cc3)no2)nnc1-c1ccccc1 | -0.146
106 | CC1CN(C(=O)c2ccccc2)c2ccccc2NC1=O (stereo unspecified) | 0.401
107 | N#Cc1c(NC(=O)CSc2nc3ccccc3s2)sc2c1CCCC2 | 0.197
108 | CCS(=O)(=O)Nc1cccc(-c2nc3cccnc3s2)c1C | -0.0197
109 | CN(C)CCCN1C(=O)C(=O)/C(=C(/O)c2ccc3c(c2)OCO3)C1c1ccco1 (stereo unspecified) | 0.0087
110 | CC1CCCN(C(=O)c2ccc3c(c2NCCO)C(=O)c2ccccc2C3=O)C1 (stereo unspecified) | 0.318
111 | Cc1occc1C(=O)N/N=C/C1=C(N2CCOCC2)C(=C\c2ccc(Cl)cc2Cl)/CC1 | 0.0547
